This note sets out measurements from patent publication US20230159453A1 (COCRYSTAL PHARMA, INC., priority 2020, published 2023).

In this test the target is Noro protease (Norovirus, UniProt Q83883). Nature of the test: Norovirus protease inhibition assay (Noro-Norwalk FRET protease assay). The conditions noted are these: IC50 (μM), peptide substrate 10 μM, 90 minutes at 37° C., compounds 200 μM to 10.2 nM.
Turning to `O=C(N[C@@H](CC1CCCCC1)C(=O)NC(CC1CC2(CCCCC2)NC1=O)C(=O)C(=O)NC1CC1)OC1CCCC1Cc1cccc(Cl)c1` (stereo partly drawn) [Compound C192, 2-(3-Chlorobenzyl)cyclopentyl ((2S)-3-cyclohexyl-1-((4-(cyclopropylamino)-3,4-dioxo-1-(2-oxo-1-azaspiro[4.5]decan-3-yl)butan-2-yl)amino)-1-oxopropan-2-yl)carbamate], the IC50 turned out to be 27.7 µM. This counts as double-digit micromolar.

Compound `COc1cccc2[nH]c(C(=O)N[C@@H](CC3CCCCC3)C(=O)NC(C=O)CC3CC4(CCCCC4)NC3=O)cc12` (stereo partly drawn) [Compound C193, N-((2S)-3-Cyclohexyl-1-oxo-1-((1-oxo-3-(2-oxo-1-azaspiro[4.5]decan-3-yl)propan-2-yl)amino)propan-2-yl)-4-methoxy-1H-indole-2-carboxamide] yielded an IC50 of 3.8 µM. This IC50 lies about 7.3-fold lower than the previous one.

Regarding `CC(C)C[C@H](NC(=O)OC1(Cc2ccccc2)CCC1)C(=O)N[C@@H](C[C@@H]1CCNC1=O)C(=O)CCl` [Compound C194, 1-Benzylcyclobutyl ((S)-1-(((S)-4-chloro-3-oxo-1-((S)-2-oxopyrrolidin-3-yl)butan-2-yl)amino)-4-methyl-1-oxopentan-2-yl) carbamate], the IC50 was more than 200 µM.

For `O=C(N[C@@H](CC1CCCCC1)C(=O)NC(CC1CC2(CCCCC2)NC1=O)C(=O)C(=O)NC1CC1)OC(Cc1cccc(Cl)c1)c1cccc(Cl)c1` (stereo partly drawn) [Compound C195, 1,2-Bis(3-chlorophenyl)ethyl ((2S)-3-cyclohexyl-1-((4-(cyclopropylamino)-3,4-dioxo-1-(2-oxo-1-azaspiro[4.5]decan-3-yl)butan-2-yl)amino)-1-oxopropan-2-yl)carbamate], the IC50 was more than 200 µM.

`CC(C)C[C@H](NC(=O)OC1CCCC1Cc1cccc(Cl)c1)C(=O)N[C@@H](C[C@@H]1CCNC1=O)C(=O)C(=O)NC1CC1` (stereo partly drawn) [Compound C196, 2-(3-Chlorobenzyl)cyclopentyl ((S)-1-(((S)-4-(cyclopropylamino)-3,4-dioxo-1-((S)-2-oxopyrrolidin-3-yl)butan-2-yl)amino)-4-methyl-1-oxopentan-2-yl)carbamate] had an IC50 of 26.3 µM. In other words, the double-digit micromolar range.

Compound `O=C(N[C@@H](CC1CCCCC1)C(=O)N[C@@H](CC1CC2(CCCCC2)NC1=O)C(=O)CCl)OCc1cccc(Cl)c1` (stereo partly drawn) [Compound C197, 3-Chlorobenzyl ((2S)-1-(((2S)-4-chloro-3-oxo-1-(2-oxo-1-azaspiro[4.5]decan-3-yl)butan-2-yl)amino)-3-cyclohexyl-1-oxopropan-2-yl)carbamate] yielded an IC50 of 155 µM.

`CC1(C)CC(CC(C=O)NC(=O)[C@H](CC2CCCCC2)NC(=O)OCc2cccc(Cl)c2)C(=O)N1` (stereo partly drawn) [Compound C198, 3-chlorobenzyl ((2S)-3-cyclohexyl-1-((1-(5,5-dimethyl-2-oxopyrrolidin-3-yl)-3-oxopropan-2-yl)amino)-1-oxopropan-2-yl)carbamate] had an IC50 of 3.3 µM.

With `CC(C)C[C@H](NC(=O)OC1CCCC1Cc1ccccc1)C(=O)N[C@@H](C[C@@H]1CCNC1=O)C(=O)CCl` (stereo partly drawn) [Compound C199, 2-Benzylcyclopentyl ((S)-1-(((S)-4-chloro-3-oxo-1-((S)-2-oxopyrrolidin-3-yl)butan-2-yl)amino)-4-methyl-1-oxopentan-2-yl)carbamate], the IC50 is 92.8 µM.

`O=C[C@H](CC1CC2(CCOCC2)NC1=O)NC(=O)[C@H](CC1CCCCC1)NC(=O)OCc1cccc(Cl)c1` (stereo partly drawn) [Compound C200, 3-Chlorobenzyl ((2S)-3-cyclohexyl-1-oxo-1-(((2S)-1-oxo-3-(2-oxo-8-oxa-1-azaspiro[4.5]decan-3-yl)propan-2-yl)amino)propan-2-yl)carbamate] returned an IC50 of 1.2 µM.

In the case of `CC(C)C[C@H](NC(=O)OC(c1ccc(Cl)cc1)C1(c2cccc(Cl)c2)CC1)C(=O)N[C@@H](C[C@@H]1CCNC1=O)C(=O)C(=O)NC1CC1` (stereo partly drawn) [Compound C201, (4-Chlorophenyl)(1-(3-chlorophenyl)cyclopropyl) methyl ((S)-1-(((S)-4-(cyclopropylamino)-3,4-dioxo-1-((S)-2-oxopyrrolidin-3-yl)butan-2-yl)amino)-4-methyl-1-oxopentan-2-yl) carbamate], half-maximal inhibition (IC50) required 2.7 µM.

Consider `CC(C)(C)C(=O)N1CCC2(CC1)CC(CC(C=O)NC(=O)[C@H](CC1CCCCC1)NC(=O)OC1CCCC1Cc1cccc(Cl)c1)C(=O)N2` (stereo partly drawn) [Compound C202, 2-(3-Chlorobenzyl) cyclopentyl ((2S)-3-cyclohexyl-1-oxo-1-((1-oxo-3-(2-oxo-8-pivaloyl-1,8-diazaspiro[4.5]decan-3-yl)propan-2-yl)amino)propan-2-yl)carbamate], for which 7.3 µM corresponded to half-maximal inhibition (IC50).

Compound `CC(C)C[C@H](NC(=O)OC(c1cccc(Cl)c1)C1(c2cccc(Cl)c2)CC1)C(=O)N[C@H](C=O)C[C@@H]1CCNC1=O` (stereo partly drawn) [Compound C203, (3-chlorophenyl)(1-(3-chlorophenyl)cyclopropyl)methyl ((S)-4-methyl-1-oxo-1-(((S)-1-oxo-3-((S)-2-oxopyrrolidin-3-yl)propan-2-yl)amino)pentan-2-yl)carbamate] returned an IC50 of 1.5 µM. This IC50 lies about 4.9-fold lower than the previous one.

On to `CC(C)C[C@H](NC(=O)OC1(Cc2cccc(Cl)c2)CCC1)C(=O)NC(C=O)CC1CC2(CCOCC2)NC1=O` (stereo partly shown) [Compound C204], for which the midpoint of inhibition, the IC50, lay at 1.8 µM.

Regarding `CC1(C)CC(CC(NC(=O)[C@H](CC2CCCCC2)NC(=O)OC(c2cccc(F)c2)C(C)(C)c2cccc(Cl)c2)C(=O)C(=O)NC2CC2)C(=O)N1` (stereo partly drawn) [Compound C205, 2-(3-Chlorophenyl)-1-(3-fluorophenyl)-2-methylpropyl ((2S)-3-cyclohexyl-1-((4-(cyclopropylamino)-1-(5,5-dimethyl-2-oxopyrrolidin-3-yl)-3,4-dioxobutan-2-yl)amino)-1-oxopropan-2-yl)carbamate], the IC50 was 184 µM.

`O=C(N[C@@H](CC1CCCCC1)C(=O)NC(CC1CC2(CCOCC2)NC1=O)C(=O)C(=O)NC1CC1)OC1CCCC1Cc1cccc(Cl)c1` (stereo partly drawn) [Compound C206, 2-(3-Chlorobenzyl)cyclopentyl ((2S)-3-cyclohexyl-1-((4-(cyclopropylamino)-3,4-dioxo-1-(2-oxo-8-oxa-1-azaspiro[4.5]decan-3-yl)butan-2-yl)amino)-1-oxopropan-2-yl)carbamate]: the IC50 was 76.3 µM.

For `CC(C)C[C@H](NC(=O)OC(c1ccccc1)C(C)(C)c1cccc(Cl)c1)C(=O)N[C@@H](C[C@@H]1CCNC1=O)C(=O)C(N)=O` (stereo partly drawn) [Compound C207, 2-(3-Chlorophenyl)-2-methyl-1-phenylpropyl ((S)-1-(((S)-4-amino-3,4-dioxo-1-((S)-2-oxopyrrolidin-3-yl)butan-2-yl)amino)-4-methyl-1-oxopentan-2-yl)carbamate], the half-inhibitory concentration (IC50) came out at 106 µM.

Take `CC(C)C[C@H](NC(=O)OC(c1ccccc1)C(C)(C)c1cccc(Cl)c1)C(=O)N[C@@H](C[C@@H]1CCNC1=O)C(=O)CCl` (stereo partly drawn) [Compound C209, 2-(3-Chlorophenyl)-2-methyl-1-phenylpropyl ((S)-1-(((S)-4-chloro-3-oxo-1-((S)-2-oxopyrrolidin-3-yl)butan-2-yl)amino)-4-methyl-1-oxopentan-2-yl)carbamate]: half-maximal inhibition (IC50) required 88 µM.

The compound `CC(C)(C)C(=O)N1CCC2(CC1)CC(CC(NC(=O)[C@H](CC1CCCCC1)NC(=O)OC1CCCC1Cc1cccc(Cl)c1)C(=O)C(=O)NC1CC1)C(=O)N2` (stereo partly drawn) [Compound C210, 2-(3-Chlorobenzyl) cyclopentyl ((2S)-3-cyclohexyl-1-((4-(cyclopropylamino)-3,4-dioxo-1-(2-oxo-8-pivaloyl-1,8-diazaspiro[4.5]decan-3-yl)butan-2-yl)amino)-1-oxopropan-2-yl) carbamate] displayed an IC50 of more than 200 µM.

The compound `CCNC(=O)C(=O)[C@H](C[C@@H]1CCNC1=O)NC(=O)[C@H](CC1CCCCC1)NC(=O)OC(c1ccccc1)C(C)(C)c1cccc(Cl)c1` (stereo partly drawn) [Compound C211, 2-(3-Chlorophenyl)-2-methyl-1-phenylpropyl ((S)-3-cyclohexyl-1-(((S)-4-(ethylamino)-3,4-dioxo-1-((S)-2-oxopyrrolidin-3-yl)butan-2-yl)amino)-1-oxopropan-2-yl) carbamate] registered an IC50 of 57.8 µM. In other words, the double-digit micromolar range.

For the compound `CC(C)(C)C(=O)N1CCC2(CC1)CC(CC(C=O)NC(=O)[C@H](CC1CCCCC1)NC(=O)OCc1cccc(Cl)c1)C(=O)N2` (stereo partly drawn) [Compound C212, 3-Chlorobenzyl ((2S)-3-cyclohexyl-1-oxo-1-((1-oxo-3-(2-oxo-8-pivaloyl-1,8-diazaspiro[4.5]decan-3-yl)propan-2-yl)amino)propan-2-yl)carbamate], the IC50 was determined as 5.3 µM.

Compound `O=C(N[C@@H](CC1CCCCC1)C(=O)N[C@@H](C[C@@H]1CCNC1=O)C(=O)C(=O)NC1CC1)OC(c1cccc(Cl)c1)C1(c2cccc(Cl)c2)CC1` (stereo partly shown) [Compound C213] displayed an IC50 of 18.9 µM.

`COc1cccc2[nH]c(C(=O)N[C@@H](CC(C)C)C(=O)NC(C=O)CC3CC4(CCCCC4)NC3=O)cc12` (stereo partly drawn) [Compound C214, 4-Methoxy-N-((2S)-4-methyl-1-oxo-1-((1-oxo-3-(2-oxo-1-azaspiro[4.5]decan-3-yl)propan-2-yl)amino)pentan-2-yl)-1H-indole-2-carboxamide] registered a half-maximal inhibitory concentration (IC50) of 4.6 µM.

`CC(C)C[C@H](NC(=O)OC1(Cc2ccccc2)CCC1)C(=O)N[C@@H](C[C@@H]1CCNC1=O)C(=O)CO` [Compound C215, 1-Benzylcyclobutyl ((S)-1-(((S)-4-hydroxy-3-oxo-1-((S)-2-oxopyrrolidin-3-yl)butan-2-yl)amino)-4-methyl-1-oxopentan-2-yl) carbamate]: the IC50 was more than 200 µM.

With `CC(C)C(OC(=O)N[C@@H](CC1CCCCC1)C(=O)N[C@@H](C[C@@H]1CCNC1=O)C(=O)C(N)=O)c1ccccc1` (stereo partly drawn) [Compound C216, 2-Methyl-1-phenylpropyl ((S)-1-(((S)-4-amino-3,4-dioxo-1-((S)-2-oxopyrrolidin-3-yl)butan-2-yl)amino)-3-cyclohexyl-1-oxopropan-2-yl)carbamate], the IC50 was more than 200 µM.

The compound `CC1(C)CC(CC(NC(=O)[C@H](CC2CCCCC2)NC(=O)OC(Cc2cccc(Cl)c2)c2ccccc2)C(=O)C(N)=O)C(=O)N1` (stereo partly drawn) [Compound C217, 2-(3-Chlorophenyl)-1-phenylethyl ((2S)-1-((4-amino-1-(5,5-dimethyl-2-oxopyrrolidin-3-yl)-3,4-dioxobutan-2-yl)amino)-3-cyclohexyl-1-oxopropan-2-yl) carbamate] gave an IC50 of more than 200 µM.
